# In the supplement of paper PMC10037445:
# “And” between values parts separate entries of the source, which are not always exact repeats. Equal entries are not always repeated. Whole data set: some 2,900 compounds, median “NF-kB SEAP reporter activity, fold change vs agonist alone” near 0.99, cut for the highest 2% near 2.6. This is one part of the list.
# Tests used:
# [1] = test system: RAW-Dual; assay: NF-kB SEAP reporter activity, fold change vs agonist alone; higher = enhanced NF-kB activity
# Method in brief: (§1)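 RAW-Dual macrophages were seeded in DMEM at 50,000 cells/well in 384-well plates, given 50 nL of library stock by pin tool, and given a PRR agonist 1 h later. Plates were held at 37 °C, 5% CO2 for 20 hours, after which supernatant was read for IRF by QuantiLuc luminescence and for NF-κB by QuantiBlue absorbance at 620 nm. Reporter activity is expressed as fold change over wells that received agonist alone. A well was called cytotoxic when IncuCyte confluency fell below 70% of agonist controls in both mask sets.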
# [2] = test system: RAW-Dual; assay: NF-kB SEAP reporter activity, fold change vs agonist alone; cytotoxicity flag (confluency mask): not cytotoxic; higher = enhanced NF-kB activity
# Method in brief: as §1
# [3] = test system: RAW-Dual; assay: NF-kB SEAP reporter activity, fold change vs agonist alone; cytotoxicity flag (confluency mask): cytotoxic (confluency <70% of control); higher = enhanced NF-kB activity
# Method in brief: as §1
# [4] = library stock concentration (final ~1000-fold dilution): 10 mM, cytotoxicity flag (confluency mask): not cytotoxic, agonist: Imiquimod (TLR7) […]
# [5] = library stock concentration (final ~1000-fold dilution): 10 mM, cytotoxicity flag (confluency mask): not cytotoxic, agonist: MPLA (TLR4) […]
# [6] = agonist: ODN 1826 (TLR9) 0.5 ug/mL
# [7] = agonist: Pam2CSK4 (TLR2/6) 0.1 ug/mL
# [8] = agonist: Pam3CSK4 (TLR2/1) 0.1 ug/mL
# [9] = library stock concentration (final ~1000-fold dilution): 10 mM water, cytotoxicity flag (confluency mask): not cytotoxic, agonist: Imiquimod (TLR7) […]
# [10] = library stock concentration (final ~1000-fold dilution): 10 mM water, cytotoxicity flag (confluency mask): not cytotoxic, agonist: MPLA (TLR4) […]
structure (smiles),measurement,setting,value
C=CC(=O)N1CC(Nc2ncnc3[nH]ccc23)CCC1C (stereo unspecified),NF-kB SEAP reporter activity,[1]; [4],0.572
same,NF-kB SEAP reporter activity,[1]; [5],0.785
C=CC(=O)N1CC(Nc2ncnc3[nH]ccc23)CCC1C (stereo unspecified) (library stock concentration (final ~1000-fold dilution): 10 mM),NF-kB SEAP reporter activity,[2]; agonist: LPS (TLR4) 0.1 ug/mL,0.655
same,NF-kB SEAP reporter activity,[2]; [6],0.682
same,NF-kB SEAP reporter activity,[2]; [7],0.56
same,NF-kB SEAP reporter activity,[2]; [8],0.738
Cl.Cl.N/C(=N\OCC(O)CN1CCCCC1)c1cccnc1 (stereo unspecified),NF-kB SEAP reporter activity,[1]; [4],0.94
same,NF-kB SEAP reporter activity,[1]; [5],1.08
Cl.Cl.N/C(=N\OCC(O)CN1CCCCC1)c1cccnc1 (stereo unspecified) (library stock concentration (final ~1000-fold dilution): 10 mM),NF-kB SEAP reporter activity,[2]; agonist: LPS (TLR4) 0.1 ug/mL,1.1
same,NF-kB SEAP reporter activity,[2]; [6],0.949
same,NF-kB SEAP reporter activity,[2]; [7],1.15
same,NF-kB SEAP reporter activity,[2]; [8],1.09
C=C1CC[C@@H]2[C@](C)(CO)[C@H](O)CC[C@@]2(C)[C@@H]1/C=C/C1=CCOC1=O (library stock concentration (final ~1000-fold dilution): 10 mM),NF-kB SEAP reporter activity,[2]; agonist: LPS (TLR4) 0.1 ug/mL,0.755
same,NF-kB SEAP reporter activity,[2]; [6],0.721
same,NF-kB SEAP reporter activity,[2]; [7],0.5
same,NF-kB SEAP reporter activity,[2]; [8],0.597
C=C1CC[C@@H]2[C@](C)(CO)[C@H](O)CC[C@@]2(C)[C@@H]1/C=C/C1=CCOC1=O,NF-kB SEAP reporter activity,[1]; [4],0.706
same,NF-kB SEAP reporter activity,[1]; [5],0.901
O=C(O)P(=O)(O)O (library stock concentration (final ~1000-fold dilution): 10 mM water),NF-kB SEAP reporter activity,[2]; agonist: LPS (TLR4) 0.1 ug/mL,1.18
same,NF-kB SEAP reporter activity,[2]; [6],1.18
same,NF-kB SEAP reporter activity,[2]; [7],1.22
same,NF-kB SEAP reporter activity,[2]; [8],1.08
O=C(O)P(=O)(O)O,NF-kB SEAP reporter activity,[1]; [9],0.97
same,NF-kB SEAP reporter activity,[1]; [10],1.04
CC(C)(C)NS(=O)(=O)c1cncc(-c2cc(F)c3nc(N)nn3c2)c1 (library stock concentration (final ~1000-fold dilution): 10 mM),NF-kB SEAP reporter activity,[2]; agonist: LPS (TLR4) 0.1 ug/mL,0.922
same,NF-kB SEAP reporter activity,[2]; [6],1.09
same,NF-kB SEAP reporter activity,[2]; [7],0.994
same,NF-kB SEAP reporter activity,[2]; [8],1.03
CC(C)(C)NS(=O)(=O)c1cncc(-c2cc(F)c3nc(N)nn3c2)c1,NF-kB SEAP reporter activity,[1]; [4],0.918
same,NF-kB SEAP reporter activity,[1]; [5],1.11
O=C1c2c(O)cc(O)cc2OC(c2cc(O)c(O)c(O)c2)C1O (stereo unspecified) (library stock concentration (final ~1000-fold dilution): 10 mM),NF-kB SEAP reporter activity,[2]; agonist: LPS (TLR4) 0.1 ug/mL,0.954
same,NF-kB SEAP reporter activity,[2]; [6],1.02
same,NF-kB SEAP reporter activity,[2]; [7],0.798
same,NF-kB SEAP reporter activity,[2]; [8],0.657
O=C1c2c(O)cc(O)cc2OC(c2cc(O)c(O)c(O)c2)C1O (stereo unspecified),NF-kB SEAP reporter activity,[1]; [4],0.946
same,NF-kB SEAP reporter activity,[1]; [5],1.07
COc1cc(OC)cc(N(CCNC(C)C)c2ccc3ncc(-c4cnn(C)c4)nc3c2)c1 (library stock concentration (final ~1000-fold dilution): 10 mM),NF-kB SEAP reporter activity,[3]; agonist: LPS (TLR4) 0.1 ug/mL,3.64
same,NF-kB SEAP reporter activity,[3]; [6],0.427
same,NF-kB SEAP reporter activity,[3]; [7],1.06
same,NF-kB SEAP reporter activity,[3]; [8],1.57
COc1cc(OC)cc(N(CCNC(C)C)c2ccc3ncc(-c4cnn(C)c4)nc3c2)c1,NF-kB SEAP reporter activity,"[1]; library stock concentration (final ~1000-fold dilution): 10 mM, cytotoxicity flag (confluency mask): cytotoxic (confluency <70% of control), agonist: Imiquimod (TLR7) […]",1.76
same,NF-kB SEAP reporter activity,"[1]; library stock concentration (final ~1000-fold dilution): 10 mM, cytotoxicity flag (confluency mask): cytotoxic (confluency <70% of control), agonist: MPLA (TLR4) […]",2.21
O=c1nc(N2CCOCC2)oc2c(-c3cccc4c3sc3ccccc34)cccc12,NF-kB SEAP reporter activity,[1]; [4],1.1
same,NF-kB SEAP reporter activity,[1]; [5],1.85
O=c1nc(N2CCOCC2)oc2c(-c3cccc4c3sc3ccccc34)cccc12 (library stock concentration (final ~1000-fold dilution): 10 mM),NF-kB SEAP reporter activity,[2]; agonist: LPS (TLR4) 0.1 ug/mL,3.45
same,NF-kB SEAP reporter activity,[2]; [6],1.08
same,NF-kB SEAP reporter activity,[2]; [7],0.718
same,NF-kB SEAP reporter activity,[2]; [8],1.38
CN(C)CC(c1ccc(O)cc1)C1(O)CCCCC1.O=C(O)CCC(=O)O (stereo unspecified),NF-kB SEAP reporter activity,[1]; [4],0.88
same,NF-kB SEAP reporter activity,[1]; [5],0.989
CN(C)CC(c1ccc(O)cc1)C1(O)CCCCC1.O=C(O)CCC(=O)O (stereo unspecified) (library stock concentration (final ~1000-fold dilution): 10 mM),NF-kB SEAP reporter activity,[2]; agonist: LPS (TLR4) 0.1 ug/mL,0.894
same,NF-kB SEAP reporter activity,[2]; [6],0.874
same,NF-kB SEAP reporter activity,[2]; [7],1.02
same,NF-kB SEAP reporter activity,[2]; [8],0.933
O=C(O)CSc1cc(NS(=O)(=O)c2ccc(Br)cc2)c2ccccc2c1O,NF-kB SEAP reporter activity,[1]; [4],1.12
same,NF-kB SEAP reporter activity,[1]; [5],2.21
O=C(O)CSc1cc(NS(=O)(=O)c2ccc(Br)cc2)c2ccccc2c1O (library stock concentration (final ~1000-fold dilution): 10 mM),NF-kB SEAP reporter activity,[2]; agonist: LPS (TLR4) 0.1 ug/mL,3.16
same,NF-kB SEAP reporter activity,[2]; [6],1.31
same,NF-kB SEAP reporter activity,[2]; [7],1.24
same,NF-kB SEAP reporter activity,[2]; [8],2.31
Cc1cc(C(=O)O)n[nH]1 (library stock concentration (final ~1000-fold dilution): 10 mM),NF-kB SEAP reporter activity,[2]; agonist: LPS (TLR4) 0.1 ug/mL,1.11
same,NF-kB SEAP reporter activity,[2]; [6],0.99
same,NF-kB SEAP reporter activity,[2]; [7],0.961
same,NF-kB SEAP reporter activity,[2]; [8],0.917
Cc1cc(C(=O)O)n[nH]1,NF-kB SEAP reporter activity,[1]; [5],1
C#CC1(O)CCC2C3CCC4=Cc5oncc5CC4(C)C3CCC21C (stereo unspecified),NF-kB SEAP reporter activity,[1]; [4],0.903
same,NF-kB SEAP reporter activity,[1]; [5],1.27
C#CC1(O)CCC2C3CCC4=Cc5oncc5CC4(C)C3CCC21C (stereo unspecified) (library stock concentration (final ~1000-fold dilution): 10 mM),NF-kB SEAP reporter activity,[2]; agonist: LPS (TLR4) 0.1 ug/mL,0.969
same,NF-kB SEAP reporter activity,[2]; [6],0.917
same,NF-kB SEAP reporter activity,[2]; [7],0.616
same,NF-kB SEAP reporter activity,[2]; [8],0.595
NCCCCC(NC(CCc1ccccc1)C(=O)O)C(=O)N1CCCC1C(=O)O (stereo unspecified),NF-kB SEAP reporter activity,[1]; [9],0.939
same,NF-kB SEAP reporter activity,[1]; [10],1.06
NCCCCC(NC(CCc1ccccc1)C(=O)O)C(=O)N1CCCC1C(=O)O (stereo unspecified) (library stock concentration (final ~1000-fold dilution): 10 mM water),NF-kB SEAP reporter activity,[2]; agonist: LPS (TLR4) 0.1 ug/mL,1.18
same,NF-kB SEAP reporter activity,[2]; [6],1.14
same,NF-kB SEAP reporter activity,[2]; [7],1.14
same,NF-kB SEAP reporter activity,[2]; [8],1.2
Nc1ccc(O)c(C(=O)O)c1 (library stock concentration (final ~1000-fold dilution): 10 mM),NF-kB SEAP reporter activity,[2]; agonist: LPS (TLR4) 0.1 ug/mL,1.04 and 1.16
same,NF-kB SEAP reporter activity,[2]; [6],0.938 and 1.12
same,NF-kB SEAP reporter activity,[2]; [7],1.06 and 1.1
same,NF-kB SEAP reporter activity,[2]; [8],1.08 and 0.987
